Results published in the supplement of paper PMC11417369.
The list shows a part of the results.

Test system: PfHDP1 homeodomain (GST-tagged)
Test: gcPBM binding intensity (ln(normalized median fluorescence intensity)); higher = stronger DNA binding
Procedure, shortened: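 The highest Masliner-normalised natural-log median intensity across replicate spots of either probe orientation is reported as binding intensity. GST-tagged P. falciparum DNA-binding domains expressed in E. coli were applied for 1 h to an Agilent 4 × 180k array of primer-extended double-stranded 36-bp intergenic genomic probes plus negative controls, and bound protein was detected with Alexa488 anti-GST antibody and scanned at 488 nm.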

Going from TATTCATATTTAAAGGTGCAATATTTATTTTGTACA to “TATTCTAATTTTTAAACACACAAATATAAATAAGTA [CACACA_site3149]”, the “gcPBM binding intensity (ln)” value falls from 9.16 to 6.35.

First: TAAAAATGTGTATGTACACACTTTATTTTTAATACA [CACACA_site7235]
Second: TATAATTATTTTTTTCTAAATATTATAAGGTATTCA [GTGCAC_negctrl_site205]
The “gcPBM binding intensity (ln)” value of the first is higher: 6.23 for the first, 5.78 for the second.

First: ATTTTTTTTTTTTTTTTTTTTTTTTAGATTAAGAAA [CACACA_negctrl_site1272]
Second: AAATAAAATAAAATAAAATAAAATTCTTTGATACCT [TGCATGCA_negctrl_site604]
The “gcPBM binding intensity (ln)” value of the first is lower: 5.81 for the first, 6.15 for the second.

First: TAATAGAATATGATGGTGCAGCAGTCTTATTTTTCA
Second: TTTCTTTCTTCACATATATATATATATATATTTATA [TGCATGCA_negctrl_site341]
The “gcPBM binding intensity (ln)” value of the first is lower: 7.17 for the first, 7.33 for the second.

First: TACATATAATATATTGCACACGTCAGAATAATATAG [CACACA_site1744]
Second: CCCCCCCACGGACACACACACATACATACCACATAT [CACACA_site5303]
The “gcPBM binding intensity (ln)” value of the first is higher: 10.3 for the first, 8.24 for the second.

Compared with “TTTTATAATATTTAAAGTACATTCTAAAAATATAAT [XGTACX_site8033]”, “TTAGCCATTAATTCTCTACACACCTTTATGTTATTT [CACACA_site9212]” is higher in “gcPBM binding intensity (ln)” value: 6.01 for the first, 6.66 for the second.

Compared with “ATAACCACATAAAATATAATTATATATATATATATA [CACACA_negctrl_site603]”, “TGGCACTAAAAAAATAAACACACAGATTTATATAAT [CACACA_site8386]” is lower in “gcPBM binding intensity (ln)” value: 9.04 for the first, 6.51 for the second.

Compared with “CCTGAAATTTTATTATGTACATATTATAAAATGATT [XGTACX_site1434]”, “ATTCCTCCCATGGAATGTACTCATCAAATAAATAAA [XGTACX_site6543]” is lower in “gcPBM binding intensity (ln)” value: 6.75 for the first, 6.08 for the second.

First: TACACCATGATACATACACACAGACATATACTCATT [CACACA_site4708]
Second: TCCAAATGTTTGCGTTGTACTCTTTTTTTAAAACTA [XGTACX_site5148]
The “gcPBM binding intensity (ln)” value of the first is higher: 6.94 for the first, 6.86 for the second.

Going from “TAATTAAAATTAAGAAGTACATTTTACTTTTAATGC [XGTACX_site5120]” to “AAAAAATACTTATAAAGTACTAATATATATAAGCAG [XGTACX_site743]”, the “gcPBM binding intensity (ln)” value rises from 6.16 to 6.49.

Going from “AATACAAACCAAAAAGTAAATACATCAACATGATCA [CACACA_negctrl_site140]” to “GAGAAATTTATACATACACACATATATATATTATAT [CACACA_site4038]”, the “gcPBM binding intensity (ln)” value rises from 6.26 to 6.66.

Going from TATCATGTTTTTATGGTGCATGAAATCACACATTGA to “TTTATTAATAAGAAATGTACACAAAATTATTTCCAA [XGTACX_site5970]”, the “gcPBM binding intensity (ln)” value falls from 8.41 to 5.95.

Going from “ATAGAGTCATTCCTCACACACACGCTATATGAATAG [CACACA_site2047]” to “TAAAAAATGATAGAAGTGCATAAAATAATATATATA [GTGCAC_site9904]”, the “gcPBM binding intensity (ln)” value rises from 6.73 to 9.06.

First: ATATAATAAATATATTGTACATATGAATCTACTAAA [XGTACX_site7610]
Second: AAAAAATTCCTATATACACACACGCACATATTTATA [CACACA_site6192]
The “gcPBM binding intensity (ln)” value of the first is lower: 6.28 for the first, 7.2 for the second.

Going from “GACTTGAAGAAATAAGTGCAGAGTTTTATTTTAATT [GTGCAC_site9912]” to “TTTCTATTTCCTTCACATCTTTTCATCTTTTTTTTT [CACACA_negctrl_site1110]”, the “gcPBM binding intensity (ln)” value rises from 6.96 to 7.07.

Compared with “TATTTTTTCCTTTGTTTTTTAAACTATCTTAACTAA [XGTACX_negctrl_site519]”, “AAATAAATAAAAAACACACACAAATAAATAAATATA [CACACA_site2249]” is higher in “gcPBM binding intensity (ln)” value: 6.37 for the first, 6.72 for the second.

Compared with “AAATTTTCATGTGTTGCATGCTGAACTATTTTATCA [TGCATGCA_site856]”, “AATAAAAAGGAAAGGTATATGTGTGCCCTTGTGTTA [TGCATGCA_negctrl_site83]” is higher in “gcPBM binding intensity (ln)” value: 6.64 for the first, 6.72 for the second.

Going from “AAGGAATATATATACATACACACATATATATATATA [CACACA_site1665]” to “AGTGGATGAGGACATACACACACACCGAAGTTGATA [CACACA_site9132]”, the “gcPBM binding intensity (ln)” value falls from 9.33 to 6.12.

First: AAAAAAAAAAAAAAAAAAAAAAATATATATATATAT [XGTACX_negctrl_site33]
Second: AAAAAAAAAAAAACTACACACATACAAATATTTATA [CACACA_site5430]
The “gcPBM binding intensity (ln)” value of the first is higher: 9.14 for the first, 6.6 for the second.

First: AGTATACTCGGACACACACACACATATATATATATA [CACACA_site5031]
Second: TACATACATACAGGAGTGCATATATCACAATTATTA
The “gcPBM binding intensity (ln)” value of the first is higher: 9.14 for the first, 7.99 for the second.

Going from GAAATTTTTAATGTGGTGCACAGGAAATTTTTTCTT to “TATTTCCTTTTTCTTGTTATTCATGAGAAAAAATGA [CACACA_negctrl_site482]”, the “gcPBM binding intensity (ln)” value falls from 9.56 to 6.37.

Compared with “AAAATAATAATAGGCACACATATATATATATATATA [CACACA_site2058]”, “ATATATAATATAATATGTACATAAAATTTTAACATT [XGTACX_site5773]” is lower in “gcPBM binding intensity (ln)” value: 9.54 for the first, 6.66 for the second.

Going from “TTATATATATCTAATTGTACAATATTATGTTCATTA [XGTACX_site7479]” to “ATTTATTAAATAAAAAGTACAAAATAAGAAAGAAGA [XGTACX_site6935]”, the “gcPBM binding intensity (ln)” value rises from 6.73 to 7.53.

Going from “TATATTCCCTTAATCACACATAAATAAAAAAAAATA [CACACA_site6094]” to “AAAAAAACAGTGAATGCACACATTTAAGATCCATAT [CACACA_site3148]”, the “gcPBM binding intensity (ln)” value rises from 6.45 to 9.

Compared with “TTTCTTTATAAATTAATATTCACAACACAAAATATA [CACACA_negctrl_site450]”, “AAGAAAATAAAAAATAAGCATAATATGATATGATAT [TGCATGCA_negctrl_site196]” is lower in “gcPBM binding intensity (ln)” value: 6.71 for the first, 6.64 for the second.

Compared with “GTGCATATAAGGAAGTGTACGAAAAAAAATATTCCA [XGTACX_site8490]”, “AAAAATTTGGCATACACACACACACCGACACAGACA [CACACA_site4489]” is lower in “gcPBM binding intensity (ln)” value: 7.36 for the first, 6.76 for the second.

Going from “CAAATATGTCTTATTCGTACACATATATATATATAT [XGTACX_site8817]” to “ACGACTAAATATATGAGTACATATATATATAAATAT [XGTACX_site7522]”, the “gcPBM binding intensity (ln)” value falls from 9.12 to 6.26.

First: AAGAATCATATTTAAACACACATACAGATATATATA [CACACA_site5787]
Second: TCTAAAATAAATAATGCATGTTAAAAAAAAATATAT [TGCATGCA_site562]
The “gcPBM binding intensity (ln)” value of the first is lower: 6.73 for the first, 6.79 for the second.

First: TGCAAAAAATTCCACACACACACACCCATATAAATA [CACACA_site1230]
Second: ATGTATGTTTATTACTATTTTGAGAATAGACTATAA [CACACA_negctrl_site1366]
The “gcPBM binding intensity (ln)” value of the first is higher: 6.76 for the first, 6.3 for the second.

Going from “AATTTGGTGTGTGTAAAAGTATGTGTCTATATTTAT [GTGCAC_negctrl_site166]” to “AGTTATATGATTAATACACACAACAAATGTTTCTTC [CACACA_site1092]”, the “gcPBM binding intensity (ln)” value falls from 7.17 to 6.65.

Compared with “CTGATCCACATTTATACACACCTCGGTTTGTAGAGA [CACACA_site4393]”, “AAAATATATAATATTTGTACATATTGATGGCAACAG [XGTACX_site6454]” is higher in “gcPBM binding intensity (ln)” value: 6.37 for the first, 6.56 for the second.

Going from “TTTTACACTTTTTTTTGTACACACTAAAAAGATTAA [XGTACX_site8407]” to “CAAATCATATATAGCACACAAATTCTTTATTATTAT [CACACA_site2815]”, the “gcPBM binding intensity (ln)” value rises from 6.67 to 6.69.

Going from “AAAGGTTCATAAAAATGTACATAATTATTTACATGT [XGTACX_site2722]” to TCATAACAACTTTGTGTGCACATAAAACATGTATAT, the “gcPBM binding intensity (ln)” value rises from 6.39 to 11.

Going from “TATAAGACATGATATATACACACCTTGTTTTAATTT [CACACA_site2266]” to “TTTTTTTTTTCATTCACACAAAAAAAAAAAATTTAT [CACACA_site5921]”, the “gcPBM binding intensity (ln)” value falls from 6.49 to 6.21.

Going from “ATATGAATATATATATGTACTAATTAGTAGTTTACG [XGTACX_site6273]” to “AATAAAAATATATCCACACACATATATATATATGTA [CACACA_site576]”, the “gcPBM binding intensity (ln)” value falls from 6.98 to 6.42.

First: AGAAATTTACAAATACGTACACACATATATATATAT [XGTACX_site3141]
Second: GAAGATATGTAAAATTGTACATATTATTTTATTTTA [XGTACX_site5302]
The “gcPBM binding intensity (ln)” value of the first is higher: 9.26 for the first, 6.07 for the second.

Compared with “TAAATTTATAAATCACGTACATATTTATTTATATTT [XGTACX_site4532]”, “AGATGATATAATGGCACACAAATATTTTATTATAAA [CACACA_site3553]” is higher in “gcPBM binding intensity (ln)” value: 6.31 for the first, 6.34 for the second.

Going from ATAATTTCATAATACGTGCACATAATATATAAAAAA to “ATTCAAAATTATAGGTGTACGTATTTTTTTTTTTTT [XGTACX_site7177]”, the “gcPBM binding intensity (ln)” value falls from 10.9 to 6.43.

First: CACAAAAATAAACACACACACATATATATTTATTAT [CACACA_site5923]
Second: GGAAACTAAAGGAATAAAACTATGGAAATTAATTAA [CACACA_negctrl_site1647]
The “gcPBM binding intensity (ln)” value of the first is higher: 6.6 for the first, 6.21 for the second.

Going from “TAAATTAAAAGACACACACACAAAAAAAAAAAAAAA [CACACA_site7131]” to “TACTATTTAAAATATGAACACACATTATTTGTTTTA [CACACA_site8870]”, the “gcPBM binding intensity (ln)” value falls from 6.28 to 6.17.

Going from “ATATATATATGTAAGAGTACACAAAAATATGTATGT [XGTACX_site4335]” to “TAATATGTATATAAAAGTACAGACGATTATAATTAT [XGTACX_site173]”, the “gcPBM binding intensity (ln)” value falls from 8.46 to 6.47.

Compared with “TGGTAATCCACATACACACACACATACACATATATA [CACACA_site2727]”, “AAGAAAAAAAAAATTACACACTGCGCAGATACACAA [CACACA_site1289]” is lower in “gcPBM binding intensity (ln)” value: 7.18 for the first, 6.88 for the second.

Compared with “TTTTGTAGATATGACTGTACATATTTTATACATAAC [XGTACX_site971]”, “AAAAAATAAATAAATACACACAAATATATATATATA [CACACA_site2543]” is higher in “gcPBM binding intensity (ln)” value: 6.31 for the first, 9.02 for the second.

First: CTTATATATTGCCCTTCACACACACCCATATATATA [CACACA_site8795]
Second: AAGTATGGAAAGGAATATAAATTAATACTTTCATTG [XGTACX_negctrl_site131]
The “gcPBM binding intensity (ln)” value of the first is higher: 7.47 for the first, 6.2 for the second.

In the case of “CACATACCTATATACACACACAAAATAATAAAATAA [CACACA_site7150]”, the “gcPBM binding intensity (ln)” value is reported as 6.92.
